According to publication PMC4336329 (PLoS ONE, 2015):
Among all 310,000 compounds or so, about 2,200 (0.71%) showed an effect of 50% or more. Effects have a minus sign here. The list shows a part of the results.

Molecular target: human ether-à-go-go-related gene (hERG) potassium channel (human, UniProt Q12809)
Assay: primary screen, population patch clamp on CHO cells stably expressing hERG

human ether-à-go-go-related gene (hERG) potassium channel, sequence (Q12809 whole entry, looked up): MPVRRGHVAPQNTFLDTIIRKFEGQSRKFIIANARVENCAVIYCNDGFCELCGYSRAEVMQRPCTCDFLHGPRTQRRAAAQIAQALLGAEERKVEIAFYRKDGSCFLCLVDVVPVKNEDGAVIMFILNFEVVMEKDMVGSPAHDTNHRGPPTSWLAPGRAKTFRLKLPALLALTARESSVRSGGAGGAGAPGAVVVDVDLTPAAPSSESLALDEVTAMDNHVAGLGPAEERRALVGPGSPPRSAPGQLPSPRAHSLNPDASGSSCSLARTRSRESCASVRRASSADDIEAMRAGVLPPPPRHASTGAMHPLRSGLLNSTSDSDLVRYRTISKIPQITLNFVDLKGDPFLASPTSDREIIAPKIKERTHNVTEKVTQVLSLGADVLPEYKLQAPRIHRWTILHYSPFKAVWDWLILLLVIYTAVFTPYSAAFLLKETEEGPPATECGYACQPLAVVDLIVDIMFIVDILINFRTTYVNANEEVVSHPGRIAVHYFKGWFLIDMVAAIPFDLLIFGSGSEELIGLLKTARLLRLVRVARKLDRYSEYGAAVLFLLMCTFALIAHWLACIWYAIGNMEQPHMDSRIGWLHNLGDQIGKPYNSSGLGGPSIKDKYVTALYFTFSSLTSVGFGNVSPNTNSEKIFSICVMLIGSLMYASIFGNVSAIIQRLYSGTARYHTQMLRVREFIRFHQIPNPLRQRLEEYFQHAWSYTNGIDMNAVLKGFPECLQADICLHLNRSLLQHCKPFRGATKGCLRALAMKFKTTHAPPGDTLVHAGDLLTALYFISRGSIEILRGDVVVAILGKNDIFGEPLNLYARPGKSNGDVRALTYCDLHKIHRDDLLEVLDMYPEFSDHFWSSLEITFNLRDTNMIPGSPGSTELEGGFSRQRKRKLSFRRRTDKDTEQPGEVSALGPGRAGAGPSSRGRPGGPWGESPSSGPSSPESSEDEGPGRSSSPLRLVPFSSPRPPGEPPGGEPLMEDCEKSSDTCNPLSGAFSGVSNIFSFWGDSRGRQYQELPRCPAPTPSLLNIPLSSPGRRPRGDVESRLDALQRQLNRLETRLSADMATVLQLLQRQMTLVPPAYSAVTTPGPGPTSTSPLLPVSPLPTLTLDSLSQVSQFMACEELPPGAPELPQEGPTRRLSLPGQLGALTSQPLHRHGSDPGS

| Structure (SMILES) | hERG current change (%, negative = inhibition) at 1uM |
| --- | --- |
| COc1cccc(CNS(=O)(=O)c2cc3c4c(c2)CCC(=O)N4CCC3)c1 | 8.31% |
| CCOC(=O)CC1C(=O)NCCN1Cc1cccc(C(F)(F)F)c1 (centres unmarked) | 16% |
| O=C(COc1ccccc1Cl)Nc1ccc(S(=O)(=O)N2CCOCC2)cc1 | 16% |
| CC(NC(=O)C1CCN(S(=O)(=O)N2CCCCCC2)CC1)c1ccccc1 (centres unmarked) | 1.6% |
| C=CCN=C(NC#N)SCC(=O)NCc1ccccc1 | 12.2% |
| CCOc1cccc(C2/C(=C(/O)c3ccc4c(c3)CC(C)O4)C(=O)C(=O)N2CCCn2ccnc2)c1 (centres unmarked) | 15.6% |
| O=C(Cn1nc(-c2ccccc2)ccc1=O)Nc1cccc(NC(=O)c2ccccn2)c1 | 10.7% |
| COc1ccccc1C(=O)COC(=O)/C(=C/c1ccccc1)NC(C)=O | 7.59% |
| Cc1ccc(S(=O)(=O)c2nc(S(C)(=O)=O)sc2N2CCOCC2)cc1 | 13.5% |
| COc1ccc(CC(=O)NCCc2ccc(OC)c(OC)c2)cc1 | 6.31% |
| COc1ccc(OC2C(=O)N(c3ccc(F)cc3)C2c2ccc(OC)c(OC)c2)cc1 (centres unmarked) | 2.18% |
| COc1cccc(N(CC(=O)Nc2ccc3c(c2)OCO3)S(=O)(=O)c2ccccc2)c1 | 9.57% |
| CC(CCc1ccccc1)NC(=O)CSc1nnnn1C (centres unmarked) | 7.84% |
| O=C(NCc1ccccc1)C(c1ccco1)N(C(=O)c1cnccn1)c1ccc(F)cc1 (centres unmarked) | 12.6% |
| CC(=O)Nc1sc(C)c(C)c1C(=O)OCC(=O)N(CC(C)C)C1CCS(=O)(=O)C1 (centres unmarked) | 15.1% |
| CCc1c(C)nc(N)nc1N1N=C1SCCOc1ccccc1 | 5% |
| CCOc1cccc(C(=O)N/N=C/c2coc3ccccc3c2=O)c1 | 11.6% |
| Cc1ccccc1NC(=O)CC1C(=O)NCCN1C(=O)c1cccc(Cl)c1 (centres unmarked) | 16.4% |
| COCCN1C(=O)c2ccc(C(=O)O)cc2C1=O | 18.2% |
| O=C1C2Sc3[nH]c(=O)sc3C(c3cc([N+](=O)[O-])ccc3O)C2C(=O)N1c1ccccc1 (centres unmarked) | 7.87% |
| Cc1ccc(S(=O)(=O)NCC(=O)N2CCN(S(=O)(=O)c3ccc(Cl)cc3)CC2)cc1C | 11.7% |
| COc1ccc(S(=O)(=O)N(Cc2ccc(OC)c(OC)c2)Cc2ccco2)cc1 | -0.929% |

| Structure (SMILES) | hERG current change (%, negative = inhibition) at 1uM |
| --- | --- |
| O=C(COC(=O)c1cc(S(=O)(=O)N2CCOCC2)ccc1O)NCC1CCCO1 (centres unmarked) | 6.32% |
| O=C(CSC(=S)N1CCCC1)N1CCN(S(=O)(=O)c2cccc([N+](=O)[O-])c2)CC1 | 9.73% |
| C=CCc1c(C)nc(C)nc1N/N=C/c1ccc(N(C)C)cc1 | 2.09% |
| Cc1c(/C(O)=C2\C(=O)C(=O)N(CCN(C)C)C2c2ccccc2)cnn1-c1ccccc1 (centres unmarked) | 8.46% |
| Cc1sc2ncnc(SCC(=O)c3ccc4c(c3)OCCO4)c2c1-c1ccccc1 | 0.895% |
| Cc1ccc(-n2nc(C)c(C(=O)Nc3cccc(C(=O)NC4CC4)c3)n2)c(C)c1 | 7.41% |
| COc1ccc2cc(/C=N/NC(=O)c3c(Cl)cnn3C)c(Cl)nc2c1 | 12.9% |
| COc1ccccc1/C=C/CN1CCCC(CO)(CCc2ccccc2)C1 (centres unmarked) | -31.4% |
| CC1=C(C(N)=O)C(c2ccccc2)n2nc(-c3cccs3)nc2N1 (centres unmarked) | 1.35% |
| COc1cccc(CN2CCN(Cc3cccc4c3OCO4)CC2CCO)c1 (centres unmarked) | 1.79% |
| C/C(=N\NC(=S)NC(C)C)c1ccccc1 | 8.17% |
| COc1ccc(CNc2ncccc2[N+](=O)[O-])cc1 | 2.91% |
| Cc1nc([N+](=O)[O-])c(N2CCN(C)CC2)n1Cc1ccccc1 | 1.91% |
| CC(=O)c1c(C)[nH]c(C(=O)N2CCN(C(=O)c3ccco3)CC2)c1C | 15.4% |
| Cc1noc(C)c1COC(=O)c1ccc(N(C)C)cc1 | -3.63% |
| CCCC(=O)Nc1ccc(-c2nc3cc(C)c(C)cc3o2)cc1 | 12.4% |
| Cc1cc(C(=O)CN2CCCC(C)C2)c(C)n1-c1ccc(F)cc1 (centres unmarked) | 15.3% |
| CC(C)[C@H]1COCCS(=O)(=O)N1Cc1cccc(Cl)c1 | 5.02% |
| Cc1ccc(Cl)cc1N1CCN(Cc2nnnn2Cc2ccco2)CC1 | -1.73% |
| Cc1ccc(-c2csc3ncnc(-n4nnc5ccccc54)c23)cc1C | 9.48% |
| CN(C)S(=O)(=O)c1ccc(C(=O)N2CCN(S(=O)(=O)c3cccs3)CC2)cc1 | 11% |
| CC(C)Cn1c2c(c(=O)[nH]c1=O)C(NS(=O)(=O)c1ccc(Cl)cc1)(C(F)(F)F)C(=O)N2 (centres unmarked) | 15.9% |

| Structure (SMILES) | hERG current change (%, negative = inhibition) at 1uM |
| --- | --- |
| COc1ccccc1C(=O)Nc1c2c(nn1-c1ccc([N+](=O)[O-])cc1)CS(=O)(=O)C2 | 15.7% |
| CCCCc1ccc(-c2nc(N)n[nH]2)cc1 | 14.1% |
| CC(=O)N1CCC(O)(c2ccc3c(c2)OCO3)CC1 | 15.3% |
| O=C(CC1(O)C(=O)N(Cc2ccccc2Cl)c2ccccc21)c1ccco1 (centres unmarked) | -8.31% |
| O=C1CCCC(=O)C1C1c2ccccc2CCN1C(=O)CCl (centres unmarked) | 13.1% |
| CC(C)CCN1NC2(CCC(C)CC2)NC1=S (centres unmarked) | 12.5% |
| CC(=O)OCC(=O)Nc1c(C)cc(C)cc1C | 12.5% |
| CC(=O)Oc1ccc(CCC(C)OC(C)=O)cc1 (centres unmarked) | 13.9% |
| CCc1nnc(NC(=O)C2CCCN(c3nc(C)cc(C)n3)C2)s1 (centres unmarked) | -8.24% |
| COc1ccc(CC(=O)NC(C)C2COc3ccccc3O2)cc1OC (centres unmarked) | 1.19% |
| CCC(C)NC(=O)c1cn(CC)c2cc(N3CCN(C(=O)c4ccco4)CC3)c(F)cc2c1=O (centres unmarked) | -5.19% |
| CCN(CCO)C(=O)c1ccc2nc(Cc3ccc(OC)cc3)oc2c1 | 11.8% |
| CN(C(=O)C1CCCCC1)C1CCS(=O)(=O)C1 (centres unmarked) | -0.0893% |
| Cc1nnc(SCc2cc([N+](=O)[O-])cc3c2OCOC3)[nH]c1=O | 7.45% |
| O=C(CO/N=C/c1cccc([N+](=O)[O-])c1)NC1CCCCCC1 | -3.15% |
| CC(=O)N1c2ccccc2C(=O)C1N(C)c1ccc(C)cc1 (centres unmarked) | 1.58% |
| Cc1ccc(S(=O)(=O)N2CCC(C(=O)N3CCC[C@H]3C(=O)NCC(C)C)CC2)cc1 | 12.2% |
| CCCCn1c(N)c(N(CCOC)C(=O)COC(=O)COc2cc(C)ccc2Cl)c(=O)[nH]c1=O | 22.5% |
| COc1c(S(=O)(=O)N2CCN(C)CC2)ccc(Cl)c1Cl | 17.7% |
| COc1cc(/C=N/NC(=O)C(=O)NCc2ccco2)cc(Br)c1O | 14.3% |
| Cc1cc(C)n(C(=O)c2ccc(S(=O)(=O)NCC3CCCO3)cc2)n1 (centres unmarked) | -9.81% |
| O=C(NCc1nnc(SCC(=O)N2CCCC2)o1)c1ccc(F)cc1 | 14.2% |

| Structure (SMILES) | hERG current change (%, negative = inhibition) at 1uM |
| --- | --- |
| O=C(Cc1ccccc1F)Nc1nc(-c2ccc(F)cc2)cs1 | 18.2% |
| CCOC(=O)CN1C(c2ccccc2O)Nc2ccc(Br)cc2C1c1ccccc1 (centres unmarked) | -3.26% |
| COc1cc(/C=C2/SC(=O)NC2=O)ccc1Oc1ccc([N+](=O)[O-])cc1[N+](=O)[O-] | 14.1% |
| COc1ccc(C2CC(c3ccc(F)cc3)Nc3nc(N)nn32)cc1OC (centres unmarked) | 2.71% |
| COc1ccc(-n2c(=O)c3ccccc3n(CC(=O)NC3CCCCC3)c2=O)cc1OC | 14% |
| CCC(c1nnnn1Cc1ccc(F)cc1)N1CCN(C2CCCCC2)CC1.Cl (centres unmarked) | -25.9% |
| O=C(O)c1ccccc1-c1ccccc1C(=O)Nc1ccc(-c2nc3cc(Cl)ccc3o2)cc1 | 12.9% |
| CN(C)S(=O)(=O)Oc1ccc(Cl)cc1C(=O)Nc1cccc(C(F)(F)F)c1 | 6.8% |
| Cc1c(Cl)cnc(NC(=O)COC(=O)c2ccc3ncsc3c2)c1Cl | 0.297% |
| CCc1cccc(NC(=O)Nc2cccs2)c1 | 2.4% |
| C=CCNc1nc(-c2ccc(OC)cc2OC)cs1.Cl | 7.95% |
| CCc1cn([C@H]2C[C@H](O)[C@@H](CO)O2)c(=O)[nH]c1=O | 13.8% |
| Cc1ccc(CNC(=O)CSc2nc3ccsc3c(=O)n2NC(=O)c2ccccc2)cc1 | 12.2% |
| COc1ccc(-c2[nH]ncc2[C@@H]2C[C@H]3CN(Cc4ccccc4C)C(=O)[C@]34CCCN24)cc1 | 8.15% |
| Cc1ccccc1CN1C(=O)CSc2ccc(C(=O)N3CCOCC3)cc21 | 9.75% |
| CCOC(=O)N1CCN(Cc2cccs2)CC1 | 18.8% |
| CC(=O)Oc1ccc(N(C(C)=O)S(=O)(=O)c2ccc(C)cc2)c2ccccc12 | 8.46% |
| O=C(CSc1nnc2scc(-c3ccccc3)n12)c1ccc2c(c1)OCCO2 | 8.75% |
| CCOc1ccc(CN(C)C(C)C(=O)NCc2ccccc2)cc1 (centres unmarked) | -21.7% |
| CCOC(=O)c1c(NC(=O)c2ccccc2N(C)S(=O)(=O)c2ccccc2)sc2c1CCCC2 | 9.59% |
